Laboratory results from the supplement of paper PMC10338343.
± gives the standard deviation. The full ranking holds about 5,500 sequences; the median of “pre-steady-state target cleavage rate” is about 0.1, and the highest 2% start at about 0.64. The entries are a selection whose mix differs from that of the whole data set.

test system: MIWI (PIWIL1) piRISC loaded with piRNA #2 (30 nt); test: pre-steady-state target cleavage rate (min^-1); MIWI and MILI are mouse PIWI proteins and EfPiwi is from a freshwater sponge; tags in brackets are library labels; higher = faster piRNA-guided slicing of the target; conditions: guide: piRNA #2 5'p-UUAGGUAACCCAGUAGAUCCAGAGGAAUUC; auxiliary factor: 500 nM mouse GTSF1
In short: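 For Cleave-'n-Seq, a transcribed, DNA-blocked target RNA library […] met 1 nM active affinity-purified piRISC with one synthetic guide at 33 °C for 0–8 or 0–960 min in HEPES–potassium acetate buffer, with or without 500 nM GTSF1 partner protein. Uncleaved targets were sequenced and normalised to depth and weakly complementary targets, with three trials pooled and k3 capped at 0.0001 min^-1. A burst-and-steady-state fit supplied the pre-steady-state cleavage rate.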

| Sequence | pre-steady-state target cleavage rate |
| --- | --- |
| CUUAUCCUCUGGAAGUACUGGGUUACCUAA | 0.54 ± 0.033 |
| CUAAUCCUCUGGAUCUACUGGGUUAGCUAA | 0.377 ± 0.049 |
| CUUAACCUCUGGAUCUACAGGGUAACCUAA | 0.0467 ± 0.0074 |
| CUUUUCCUCUGGAUCUACAGGGUUACCUAA | 0.265 ± 0.023 |
| CUUAAGGAGUGGAUCUACUGGGCUACCUAA | 0.0538 ± 0.015 |
| CUUAACCUGUGGAUCUACUGGGUUUCCUAA | 0.0659 ± 0.0094 |
| GAAUUCCUCUGGAUCUACUGGCUUAGCUAA | 0.0137 ± 0.0053 |
| CUUUUCCUCAGCAUCUACUGGGUUACCUAA | 0.288 ± 0.032 |
| CAACUCCUCUGGAUCUACUGGGUUACCUAA | 0.351 ± 0.051 |
| CUAUUCCUCUGGAUCUACUGGGUUACCAUA | 0.413 ± 0.054 |
| CUUAGCCUCUGGAUCUACUGGGUUACCUAA | 0.219 ± 0.026 |
| CUUAUCCUCAGGAUCUACAGGGUUACCUAA | 0.283 ± 0.032 |
| CUUAAGGACUGGAUCUACUGGGUUACGCUAA | 0.154 ± 0.056 |
| CUUAACCUCUCGUUCUACUGGGUUACCUAA | 0.401 ± 0.044 |
| CUAUUCCUCUGGAUCUACUCGGUAACCUAA | 0.0141 ± 0.0082 |
| CUUAAGGACUCGAUCUACUGGGUUUCCUAA | 0.00343 ± 0.0034 |
| CUUAAGCUCUGGAUCUACAGGGUUACCUAA | 0.0939 ± 0.011 |
| CUUUUCCUCUGGAUCUACUGGGUGACCUAA | 0.326 ± 0.035 |
| CUUAACCUCUGCAUCUACUGGCUUACCUAA | 0.0916 ± 0.0084 |
| CUUUUCCUCUGGAUCGACUGGGUUACCUAA | 0.242 ± 0.032 |
| GAAUUCCUCUGGAUCUACUGGGUUACCUAG [g2:g30:cont:t1G] | 0.227 ± 0.049 |
| CUUAAGGAGUGGAUCUAGUGGGUUACGUAA | 0.0261 ± 0.011 |
| CUUAAGGACUGGAUGUACUGGGUUACCUAA | 0.0979 ± 0.057 |
| CUUUUCCUCUGGAUCUUCUGGGUUACCUUA | 0.29 ± 0.042 |

| Sequence | pre-steady-state target cleavage rate |
| --- | --- |
| CUUAAGCUCUGGAUCAUCUGGGUUACCUAA | 0.0652 ± 0.0083 |
| CUAUUCCUCUGGAUCUACUGGGUUAGGAAA | 0.00743 ± 0.0039 |
| CUUAAGCUCUGGAUCUACUGGGUUACCUCA | 0.0826 ± 0.016 |
| CAAUACCACUGGAUCUACUGGGUUACCUAA | 0.456 ± 0.042 |
| CUUAAGGAGAGGAUCUACUGGGUUACCUGA | 0.00553 ± 0.0032 |
| CUAUUCCUCAGGAUCUACUGGGUUAGCUAA | 0.11 ± 0.04 |
| CUUAAGGUCUGGAUCUACUGGGAUACCUAA | 0.206 ± 0.028 |
| CUUAAGGAGUGGUUCUACUGGGUUUCCUAA | 0.00451 ± 0.0028 |
| CUUUUCCUGAGGAUCUACUGGGUUACCUAA | 0.215 ± 0.023 |
| CUUAAGGAGUGGAUCAACUGGGUUACCUAA | 0.0313 ± 0.008 |
| CUUAAGGAGAGGAUCUACUGGGCUACCUAA | 0.0105 ± 0.0045 |
| GAAUUCCUCUGGAUCUAGUGGGUUACCUAA | 0.123 ± 0.021 |
| CUUAAGCUCUGGAUCUUCUGGGUUACCAAA | 0.0654 ± 0.012 |
| CUUUUCCUCUGGAUCUCUGGGUUACCUAA | 0.00459 ± 0.0033 |
| CUUAACCUCUGGAUGUACUGGGAUACCUAA | 0.0634 ± 0.0074 |
| CUUAAGCACUGGAUCUAGUGGGUUACCUAA | 0.11 ± 0.012 |
| CUAUUCCUCUGGAUCUACUGCGUUAGCUAA | 0.146 ± 0.06 |
| CAAUUCCUCUGGAUCUUCUGGGUUUCCUAA | 0.208 ± 0.045 |
| CUUAACCUACUGGAUCUACUGGGUUACCUAA | 0.291 ± 0.029 |
| CAAUUCCUCUGCAUCUUCUGGGUUACCUAA | 0.392 ± 0.043 |
| CUUAAGGUCUGGCUCUACUGGGUUACCUAA | 0.201 ± 0.019 |
| CUUAUCCUCUGGAUCUACUGGGUUACCGUAA | 0.344 ± 0.063 |
| CUUAACCUCUCGAUCUACUGGGUUAGCUAA | 0.14 ± 0.017 |
| CUUAACGUCUGGAACUACUGGGUUACCUAA | 0.329 ± 0.029 |

| Sequence | pre-steady-state target cleavage rate |
| --- | --- |
| CUUAAGCUCUCGAUCUACUGGGUUACCAAA | 0.189 ± 0.018 |
| CUUAACCCCUGGAUCUACUGGGUUACCUAA | 0.4 ± 0.031 |
| GAAUUCCUCUGGAUCAAGUGGGUUACCUAA | 0.00675 ± 0.0032 |
| CUUAAGGACUGGAUCUACUGGGUUCACCUAA | 0.0717 ± 0.032 |
| CUAUUCCUGUGGAUCUUCUGGGUUACCUAA | 0.342 ± 0.057 |
| CUUAAGGUCUGGAUCUACUGCGUUACCUAA | 0.338 ± 0.048 |
| CUAUUCCUCUGGAUCUACCGGGUUACCUAA | 0.159 ± 0.018 |
| CAAAUCCUGUGGAUCUACUGGGUUACCUAA | 0.339 ± 0.042 |
| CAAUUCCUCUGGAUCUACUCGGUUUCCUAA | 0.0763 ± 0.028 |
| GAAUUCCUGAGGAUCUACUGGGUUACCUAA | 0.307 ± 0.029 |
| GAAUUCCUCUGCAUGUACUGGGUUACCUAA | 0.444 ± 0.039 |
| GAAUUCCUCUGGAUCUUGUGGGUUACCUAA | 0.0044 ± 0.0032 |
| CUUAAGGAGACCAUCUACUGUGUUACCUAA | 0.00683 ± 0.0027 |
| GAAUUCCUCUGCAUCUACUGGGUUAGCUAA | 0.398 ± 0.041 |
| CUUUUCCUCUGGUUCUACUGGGUUACCUUA | 0.254 ± 0.041 |
| GAAUUCCUCUGGAUCUACUGGGAUUACCUAA | 0.184 ± 0.034 |
| CUUUACCUCUGGAUCUACUGGGAUACCUAA | 0.234 ± 0.025 |
| CAAAUCGUCUGGAUCUACUGGGUUACCUAA | 0.383 ± 0.06 |
| CUUAUCCUCUGGAUCUAGUGCGUUACCUAA | 0.0645 ± 0.0086 |
| CUUAAGCUCUGGAGCUACUGGGUUACCUAA | 0.191 ± 0.026 |
| CUUUUCCUCUGGAUCUACUGGGUUACCUUA | 0.316 ± 0.05 |
| GAAUUCCUCUGGAUCUACAGGGAUACCUAA | 0.125 ± 0.018 |
| CUAUUCCUCUGGAUCUAGUGCGUUACCUAA | 0.0719 ± 0.012 |
| CUAUUCCUCAGGAUCUACUCGGUUACCUAA | 0.0875 ± 0.019 |
